Laboratory results reported in PubChem BioAssay AID504832 (National Center for Advancing Translational Sciences (NCATS), 2011).
The whole screen tested about 310,000 compounds, of which about 18,000 (5.8%) were called active. The inconclusive results got no clear call from the source; some entries with a clear call stand among them for comparison. The call rests on the fitted dose curve; in most records, active means well fitted inhibition curve with a large enough effect; inconclusive means small, poorly fitted or top-dose-only effect, or another doubt; inactive means no such curve, though single readings can be large or run the other way. Potencies of inconclusive entries are left out as doubtful fits.
On the % scale 0 is the no-effect control and ±100 the full control effect; potency means the concentration at half of the fitted maximal effect; tags describe the fitted curve by direction and shape.

Experiment: Primary qHTS for delayed death inhibitors of the malarial parasite plastid, 48 hour incubation
Details: P. falciparum luciferase growth in erythrocytes; series mostly up to 28.7 µM; activity change, negative = inhibition: at the top concentration
In short: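 First compound was added to culture medium, then infected red cells at 0.1% parasitemia and 2% hematocrit (final). After incubation at 37 C under 5% CO2, luciferase detection reagent was dispensed and light output recorded.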
For `C/C(=N\N(c1ccccc1)c1ccccc1)c1ccco1`, the Potency was inconclusive [inhibitor, single point].
For `Cc1nnc(NC(=O)CCS(=O)(=O)c2ccccc2)s1`, the Potency was inconclusive [inhibitor, full curve, poor fit].
In the case of `O=C(NC(NC(=S)Nc1ccc(Cl)cc1Cl)C(Cl)(Cl)Cl)c1cccc([N+](=O)[O-])c1` (centres undefined), the Potency is reported as active: 1.65 µM.
With `Cc1c(NC(=O)c2ccc([N+](=O)[O-])o2)cccc1-c1nc2ncccc2o1` the Potency was active: 11.7 µM.
With `Cc1nc2ccccc2nc1OCC(=O)Nc1cc(C(F)(F)F)ccc1N1CCOCC1` the Potency was active: 11.7 µM.
For `O=C(COc1coc(CN2CCc3ccccc32)cc1=O)Nc1ccccc1`, the Potency was inconclusive [inhibitor, single point].
In the case of `Oc1c(N=Nc2ccccn2)ccc2ccccc12`, the Potency is reported as inconclusive [inhibitor, partial curve, poor fit].
For `COc1ccc(C)cc1-n1c(SCC(=O)NCC2CCCO2)nc2c([nH]c3ccccc32)c1=O` (centres undefined), the Potency was active: 9.28 µM.
With `COc1ccc(OC)c2c(C)cc(N3CCN(C(=O)c4ccc(Cl)cc4)CC3)nc12` the Potency was inconclusive [inhibitor, single point].
In the case of `CNC(C)C#Cc1ccc2sc3cccc(OC)c3c(=O)c2c1` (centres undefined), the Potency is reported as inconclusive [inhibitor, partial curve, poor fit].
With `CCC(=O)Nc1cccc(C2=NOC3(C2)C[C@@H](C(N)=O)N(C(=O)COc2ccc(Cl)cc2)C3)c1` (some centres undefined) the Potency was inconclusive [inhibitor, single point].
For `COc1ccc(C(CNC(=O)c2ccc(NS(=O)(=O)c3ccc(F)c(C)c3)cc2)N(C)C)cc1` (centres undefined), the Potency was active: 14.7 µM.
In the case of `O=C(/C=C/c1ccco1)c1ccc(NC(=O)C23CC4CC(CC(C4)C2)C3)cc1`, the Potency is reported as inconclusive [inhibitor, partial curve, poor fit].
In the case of `Cc1cccc(CNC(=O)Cn2ccc3cc(S(=O)(=O)N4CCCC4)ccc32)c1`, the “activity change, negative = inhibition” value is reported as inactive: -16.3%.
For `Cc1cccc2c1N(CCOc1ccccc1Cl)C(=O)C2=O`, the Potency was inconclusive [inhibitor, single point].
With `COc1cc(OC)cc(C(=O)Nc2cccc3ccccc23)c1` the “activity change, negative = inhibition” value was inactive: -12.4%.
With `Nn1cnnc1N/N=C/c1ccccc1C(F)(F)F` the Potency was inconclusive [inhibitor, single point].
For `CCCCCC(=O)Nc1ncc2c(n1)CC(c1cccs1)CC2=O` (centres undefined), the Potency was inconclusive [inhibitor, partial curve, poor fit].
With `Cc1ccc(C(=O)NCC(c2ccco2)N2CCc3ccccc3C2)cc1C` (centres undefined) the Potency was inconclusive [inhibitor, single point].
For `CCC1(c2ccc(F)cc2)NC(=O)N(CC(=O)Nc2ccccc2C)C1=O` (centres undefined), the “activity change, negative = inhibition” value was inactive: 3.34%.
With `COc1cccc(-c2cc(C(=O)N/N=C/c3ccco3)c3ccccc3n2)c1` the Potency was inconclusive [inhibitor, single point].
For `CSc1ccc(CCNC(=O)CSc2ccsc2[N+](=O)[O-])cc1`, the “activity change, negative = inhibition” value was inactive: 3.3%.
With `Cn1cc(CN2CCCC(CO)(Cc3ccccc3)C2)c2ccccc21` (centres undefined) the Potency was active: 11.7 µM.
For `COC1(OC)N=C(N)C2(C#N)C(c3ccc4c(c3)OCO4)C12C#N` (centres undefined), the Potency was inconclusive [inhibitor, single point].
In the case of `COc1cc(/C=C2/C(=O)N(c3ccc(Br)cc3)N=C2C)cc([N+](=O)[O-])c1O`, the “activity change, negative = inhibition” value is reported as inactive: 22.1%.
With `CC1CCN(CC(=O)Nc2ccc(N3CCCCCC3)cc2)CC1` the Potency was inconclusive [inhibitor, single point].
For `O=C(CN1CCC(c2nc3ccccc3s2)CC1)NCc1ccccc1`, the Potency was inconclusive [inhibitor, single point].
For `C=CCn1c(SCC(C)=O)nc2scc(-c3ccco3)c2c1=O`, the “activity change, negative = inhibition” value was inactive: -19.5%.
With `O=C(NCc1ccccc1)c1cccc(NS(=O)(=O)c2cccc3cccnc23)c1` the “activity change, negative = inhibition” value was inactive: 11.8%.
In the case of `COc1ccc(-n2nnc3c(=O)n(CC(=O)N4CCCc5ccccc54)cnc32)cc1`, the Potency is reported as inconclusive [inhibitor, single point].
With `Cc1ccc2c(c1)nnn2C1CCN(S(=O)(=O)c2cccc(S(=O)(=O)N(C)C)c2)CC1` the Potency was active: 10.4 µM.
In the case of `O=C(c1ccco1)N(CCC(c1ccccc1)c1ccco1)Cc1ccc(F)cc1` (centres undefined), the Potency is reported as inconclusive [inhibitor, partial curve, poor fit].
With `COC(=O)CSc1nc2cc3c(cc2cc1C#N)OCO3` the “activity change, negative = inhibition” value was inactive: 445%.
In the case of `O=Cc1ccc(C(=O)OCC(=O)NCCC2=CCCCC2)cc1`, the Potency is reported as inconclusive [inhibitor, partial curve, poor fit].
With `CCn1c2ccccc2c2cc(CN3CCN(Cc4cc(OC)ccc4O)CC3)ccc21` the Potency was active: 1.17 µM.
With `O=c1[nH][nH]c(-c2ccccc2O)c1C(C[N+](=O)[O-])c1ccc(Br)cc1` (centres undefined) the “activity change, negative = inhibition” value was inactive: -30%.
With `Cc1nn(Cc2ccc(Cl)cc2)c(C)c1NC(=O)c1noc2c1CCCCC2` the Potency was inconclusive [inhibitor, partial curve].
In the case of `Cc1ccc(Cl)cc1N1CCN(C(=O)c2cc3c(=O)[nH]c4ccccc4c3n2C)CC1`, the Potency is reported as inconclusive [inhibitor, partial curve].
In the case of `O=C(CSc1nncs1)NCc1ccc(F)cc1`, the “activity change, negative = inhibition” value is reported as inactive: 0%.
In the case of `Cc1cccc(NC(=O)COc2coc(CN3CCc4ccccc4C3)cc2=O)c1`, the Potency is reported as active: 8.28 µM.
For `O=C(CCl)Nc1cccc(S(=O)(=O)NC2=NCCC2)c1`, the Potency was active: 3.29 µM.
In the case of `CC(NC(=O)Nc1ccc(Cl)c(Cl)c1)C(c1ccccc1)N1CCOCC1` (centres undefined), the Potency is reported as inconclusive [inhibitor, single point].
For `Cc1ccc(S(=O)(=O)N2CCC(=O)N(C(COCc3cccc(C(F)(F)F)c3)C(C)C)CC2)cc1` (centres undefined), the Potency was inconclusive [inhibitor, single point].
With `Cc1sc(NC(=O)Cn2[nH]c(=O)c3ccccc3c2=O)nc1-c1ccccc1` the Potency was inconclusive [inhibitor, single point].
For `COc1ccc(-c2cn(-c3ccc(C)c(C)c3)c(=S)[nH]2)cc1OC`, the Potency was active: 13.1 µM.
In the case of `CC(=O)c1ccc(N(CC(=O)NC2CCCC2)C(=O)CNC(=O)c2cccs2)cc1`, the “activity change, negative = inhibition” value is reported as inactive: 19.6%.
For `COc1ccc(C)cc1NC(=O)C1CCCN(S(=O)(=O)c2ccc3[nH]c(=O)ccc3c2)C1` (centres undefined), the Potency was inconclusive [inhibitor, partial curve, poor fit].
In the case of `CCOC(=O)c1c(C)[nH]c(C(=O)OCC(=O)N2CCN(S(=O)(=O)c3ccc(C)cc3C)CC2)c1C`, the Potency is reported as active: 14.7 µM.
For `COc1ccc(C(=O)N2CCN(c3ccc(NC(=O)c4ccco4)cc3)CC2)cc1`, the “activity change, negative = inhibition” value was inactive: 18.5%.
For `CN(c1ccccc1)S(=O)(=O)c1ccc(NC(=O)c2ccco2)cc1`, the activity change, negative = inhibition was inactive: 5.97% [at 5.75 µM].
In the case of `CCC(C)(C)NC(=O)C(c1cccn1C)N(Cc1ccc(C)cc1)C(=O)Cn1nnc2ccccc21` (centres undefined), the “activity change, negative = inhibition” value is reported as inactive: -9.89%.
For `Cn1c(=O)c2c(nc(NCC3CCCC(CN)C3)n2Cc2ccc(Cl)cc2Cl)n(C)c1=O` (centres undefined), the Potency was active: 2.94 µM.
With `COc1ccc(-n2c(=O)c3c4c(sc3n(CC(=O)Nc3cc(C)[nH]n3)c2=O)CCCC4)c(OC)c1` the Potency was inconclusive [inhibitor, full curve, poor fit].
In the case of `Cc1ccc2oc(=O)c(/C=C(\O)c3ccco3)nc2c1`, the Potency is reported as inconclusive [inhibitor, partial curve, poor fit].
For `CCN(CC)S(=O)(=O)c1ccc(C)c(NC(=O)CSc2nc3ccccc3[nH]2)c1`, the Potency was inconclusive [inhibitor, single point].
With `Cc1ccc(NC(=O)N2CCCn3c(SCC(=O)c4ccccc4)nnc32)cc1` the Potency was inconclusive [inhibitor, single point].
With `O=C(c1cccnc1)N1CCN(C/C=C/c2ccccc2)CC1` the “activity change, negative = inhibition” value was inactive: 12.7%.
In the case of `Cc1ccc(C(O)(C(=O)NN(C(=O)c2ccccc2)c2ccccc2)c2ccc(C)cc2)cc1`, the “activity change, negative = inhibition” value is reported as inactive: 4.8%.
With `CC(C)(C)c1ccc(C(=O)Nc2ccc(C(=O)N3CCCC3)cc2)cc1` the Potency was inconclusive [inhibitor, single point].
In the case of `COc1ccc(C2c3[nH]c4ccccc4c3C[C@H]3C(=O)N(c4ccccc4C(=O)NCCN4CCOCC4)C(=O)N23)cc1` (some centres undefined), the Potency is reported as active: 13.1 µM.
With `C=CCNC(=O)C1CCN(c2c([N+](=O)[O-])cc(C(F)(F)F)cc2[N+](=O)[O-])CC1` the Potency was active: 5.22 µM.
With `CCCc1nc2c(c(=O)c3ccccc3n2C)c(=O)n1-c1ccc(F)cc1` the Potency was inconclusive [inhibitor, partial curve, poor fit].
With `OCCC1CN(Cc2ccccc2-c2ccco2)CCN1Cc1ccccc1` (centres undefined) the Potency was inconclusive [inhibitor, partial curve, poor fit].
In the case of `CCOC(=O)c1ccc(C#Cc2ccc3c(c2)C(C)(C)CCS3)nc1`, the Potency is reported as inconclusive [inhibitor, single point].
For `COc1ccc(OCC(=O)N2CCN(C(=O)c3ccc(F)cc3)CC2)cc1`, the “activity change, negative = inhibition” value was inactive: -0.749%.
For `Cc1nc(CSc2nsc(/C=C/N(C)C)c2C#N)cs1`, the Potency was inconclusive [inhibitor, full curve].
In the case of `COc1ccc(N2C(=O)c3ccccc3NC23CCC(C)CC3)cc1` (centres undefined), the “activity change, negative = inhibition” value is reported as inactive: 108%.
For `Clc1ccc(Nc2nc(N3CCOCC3)nc(N3CCOCC3)n2)cc1Cl`, the Potency was inconclusive [inhibitor, partial curve].
With `Cc1cccc(-n2ncc3c(=O)[nH]c(SCC(=O)N4CC(=O)Nc5ccccc54)nc32)c1` the Potency was inconclusive [inhibitor, single point].
